Results taken from PMC10726135.
The list shows a part of the results. At the low end of the ranking the order means little. Measured with an extract: partners may take part in the binding.

The sequences below were run against T1, HNF4alpha8 (COS-7 nuclear extract) (UniProt P41235-5) (assay: protein-binding microarray). Conditions: COS-7 nuclear extract on double-stranded Agilent 4x180k PBM; binding buffer, salt, pH and temperature not given; high values mean tight binding; double strand, one strand shown; sequences stand for … in …GCCTAGGGAGATTAGAGTATCGGTCGA.
T1 sequence: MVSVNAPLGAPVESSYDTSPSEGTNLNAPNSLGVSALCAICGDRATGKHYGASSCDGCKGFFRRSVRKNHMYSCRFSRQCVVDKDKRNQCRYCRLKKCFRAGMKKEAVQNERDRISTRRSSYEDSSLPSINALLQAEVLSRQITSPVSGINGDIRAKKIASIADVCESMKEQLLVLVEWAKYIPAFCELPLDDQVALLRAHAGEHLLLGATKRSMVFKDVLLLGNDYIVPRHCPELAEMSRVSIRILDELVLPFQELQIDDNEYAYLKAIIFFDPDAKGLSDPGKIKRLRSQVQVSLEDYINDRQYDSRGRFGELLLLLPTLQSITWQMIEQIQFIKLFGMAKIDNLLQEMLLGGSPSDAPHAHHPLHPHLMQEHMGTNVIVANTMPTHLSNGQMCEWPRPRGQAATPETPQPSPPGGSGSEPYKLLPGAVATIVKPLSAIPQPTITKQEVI

Sequence	binding signal (log2 normalized intensity)
AAGATAAAGGGACAGGGGTCATCAGGGGTC	3.99
CCTTAGCTTATCGTCCCTTCCCTCTGTCTT	1.36
AAAATCTTCAAACAACCCTTCGCTAGAGCA	-1.32
GGGTCACGAGACGGTGTCCCTGGCCAATCC	-1.18
AGGGAGTGGCAGCATTGTGCTGAAAAGACT	-1.28
GGAAATTGTCAGTGCCCTATACAGACCTTT	3.45
ACCCGGGTACTGGAAACTGGGCAAGGTCCA	4.17
GCTCACATACCACTGACTAAAGCAAGTCAG	-1.26
ACCAGCTGCCTCTTGTGTTCACTCTAGGAA	-0.35
AGACCAAGGAGGCCTCTTCCCCAAACTAGG	-1.24
GCCTGGAGGTACCTAGGGGACATTCTTTAG	-0.678
AGGGTTCAAACTCCAGCTCTGATACTTTCT	3.93
CTCATTGGCCAGTATCCGCCTTCACTCCCC	1.76
TTTTTCCCCTGAAATATCATTATCTTGATC	1.85
AGAGGAGGCCCACACCCCTGGGGAAGGCAG	-1.28
GGTGTGAGAGGGCAAAGGTCACAGCATTAG	7.08
GACACCGGGTGAAGGTTAAATAGCTCATTA	-0.871
ATCACGTCTCTCTGGGGCCCTCTTCTGCAT	-1.03
GGCTGTGCATATTGGTTTACAGCACTTCAT	0.0136
TTTGTCAAATGCTTCCAAGAATTTAAGAGA	-0.862
CAGCCCTGCTCCCCGCCTTGGCCTCCCGGA	2.9
CCAGGATCCAGTCCTCACCCAGAACTTTGA	2.75
CCCTCCCCTCCCCCCACTCAAAATAGGAGT	4.5
TCTCATGCCCTTTGCCTCCCTGCATTCCAT	3.19
TGGATTGCCTCCTAAGGCCTCCAGAAGGAA	-1.3

Sequence	binding signal (log2 normalized intensity)
GCACAGTCAAAAATTTGTGTGTAACATTTG	1.13
GGGAGTAAAGGTCACGCAGGCCACCTGGTG	3.93
TTCCTCTCCTGCCCTACTCCCTTAAATAAT	2.5
ATATTTGCTCTTATTGATTGCCTTTCATGT	1.24
TCTGATGTCTGCTGAGAGATTCCTCTGCAC	-1.19
TCTAACATTTTTGACCTTCAGCATCTTCAA	3.81
CCCAGGGTTAGAGGATGACCTTCCCTGCAG	1.98
GGGTGATAAGAACACAAAAGCCTCTTCAGG	-1.28
GCTGCTTCCCAGTTGCTCTGGAGTGCAGGT	-1.2
TTGGCCTATGGGAAAACAGGCTCAGCAAAG	-1.37
CCCTCAGTACAGGGCGTCCTTGATAAGCAA	-1.23
GACAAAGGGCTCTCTCACCAGAAAAATGTA	-1.45
TTAGTGTGCTCTGGGTCTGTCCTTTGTGTT	2.61
GGGTCAGAGAAACCTGGCTGCGAGTCCCTG	-1.38
GGTCAATAGTCCAGATACAGATGGCTAGAA	0.704
CCCAGTCCAAATTCCCTTCCCCTCCTTAGG	2.3
TCTCTAAGATAAGGATAATCTTCACTTGCC	-0.761
GAATCACTCACTGACCTCTTTTGGATTTTT	2.04
GCTCTCCTCCTAATCACTGCCCTTTGGTGC	3.24
CTTCCCCCCTCCCTCCGCAACCTTTACTCC	5.16
TCCCTCATCTGTCATTCCCTCACTCTAGAA	-0.967
GGACAATCATTGTGCAACCTGGACATTGGC	2.97
CACTCCAGTGAGACAGAAGTAAAACAGGTA	-1.31
AGGGACTTTGTCCCACAGGAGAAGTGATCC	2.17
ATGAAAAGTGGAATGCGCTTTCATGAGATG	-1.22

Sequence	binding signal (log2 normalized intensity)
ACATCTTGATTTAGCCCAGTGAGACCCATT	0.922
GCCACCCCCGTTAATTTCTAACCAATGCAG	1.52
TAGCCTTTCATCTTCTTAGCCTTTGAACCC	6.63
TTGTCAAGTGCCCGGATAAACTTCCAGCCA	-1.33
ACTGTAACCTTTGCCCCCCTGGGCTCAAGC	6.27
TTTTATTTAACTTCTGGGGGCAAGGTACAC	5.13
TCAAGCACATTCCAGAACCAAGATTTACAT	-1.44
ATCCAGCTGGGTATACTGACTAGGACAGAG	-1.27
TTGGCACTTCTCTCGGCCTTAAGAGTCAAA	-1.4
TTTATTGTTGCTGATATAGAACACTTGTAC	1.87
TTCTTCCTGTTTGACCTTCGAACCCTTGCC	9.64
AATAAGAGCTTTGCATAAGCCAGACATTCT	-1.24
ATGGATCATCACAATCACCTGTGAAGTGGT	0.562
ATGATCCTTGGCTGTGTGACTCACCTTTGC	3.88
AGTTTTATGGCAGGGTCGGAATGTCTGGGC	1.19
TACGGACCATGGATCGCCAACCTTGGGTCT	-1.26
AGATGATAGTGATAAGGATCTAAGAACTAA	-1.35
TTATCTTACATGCCTTATCTGGTTCAAAGG	3.33
TGCCTTTGATCAGGGACCTTTGTTCCTTTA	5
TGGTTTTCCAATCTGGTGAAAGATGATGAG	0.365
ACCTAGGTAGTGGACTCTAAGGCAAAACAC	1.85
ACCCCACGGACTTAAATTGTGCTGTGTCAG	0.967
GCATTCCTGAAGCCTTCCTTAATCCTTCAG	-1.29
TGACAGCAAGATAATGTCAAAAATCTTAAG	-1.06
GGTGGTGGGGGGTAGCCACTGACAGGAGGT	-1.34

Sequence	binding signal (log2 normalized intensity)
TCCAAAGGCCATCCACATTCTTTGGCTCAG	-1.3
GGTGGCCATCCATCCTGGCGACAGCAACTA	-1.25
TTTGTCACCCAGGCTGAAGTCCAGTAGCTC	1.71
AGAGGCTTTAGCAATAAATTCTGTTTTTTC	-1.24
CCACAGAGTGACCTGGTATTGCAAGTATTT	1.28
CAAGTTGAAGCCATCCTCCCACCTCAGCCT	1.99
AGCCGCAGAGCTAATGTTCAAATCCAGACA	-1.29
TATTCAAACAGAGGACAGTTGTGTTTGTTG	1.43
AGTGCTTGTCAGTTTTGTTTTTGATCCCAA	2.57
CTATCAGTCTGGGTCCAGTCAGGGAAATGG	1.03
GCAGAGTGGGAGGCCAAGAGATAAAAGAGA	-1.1
TGGTAGCGTGTAGTAAAGCTCATGAAGCTT	0.734
CCACAAGCCAAGGAGAGAGGCCTCTAGATA	-1.26
GGTGGAGATGCCGTCGGCACACACGCATGG	-1.23
GGGCTGTGAGAAACATCCTGCCTAACCACC	-1.39
TATCTTTCCCTCCACTTCCTTTCTTTCCCT	-0.624
GGGCATGGACTTTGGAATTAAGGAGATTTG	5.76
AGCATTAATCCCTGAGCCTGGACCTTGGAA	4.7
ATGGCTACCAAGGAGTGGACTGTTCAAGAC	1.07
ACCTGGCCAAGTACAGCCTGTGCTAAGTTT	-0.0755
TAAGTGCACAGCCAGAACTGAGCCCTGGTT	-1.27
CTCTGGGAGATAAAGCAGAGGGCTGCTTGC	-1.34
CTTGGTGAGAGATTAAACATGCTCTGCATA	-1.08
AGAGCACTAAATCTCTCCTAGAGAAAGGGG	-1.38
GTAGAAATTGTGGCTTGTGTAGTTATCCAG	1.4

Sequence	binding signal (log2 normalized intensity)
CTGAGGATCTAATGCACCCAGAACCCCCAG	4.47
CATTGCAAGTCGTATACTATCTCAGGGCCT	-1.16
CGAGAGCCGCCGCCGTGGGAGAGGCCGCCC	-1.18
TTGCCTTCCTGTTAGATAGAGGAGTCAAGC	-0.622
CAAAGGACATTTCTAAAAATAGCCTTACTT	-1.37
CTACATAACAAACATTACTAACTGGACTTT	7.01
TGACCTCTTGGAAACATTTTACTCACCCCT	2.77
TATGGGAAGTGGGGTAAGCAAGGCTCTTAG	-1.34
GGCTAAACCTAGCCCCCTTTCCCTTATCTT	2.81
AAATTTGTTTACTTCTGTCTCCAGAAATCA	0.99
CCAGGTTCCAAAGGTCACCCGTATTCCTTA	7.23
AAGGTTCAGAGCCTGGCTGGCCTGGCAAAT	-1.03
ACATTCTTAGACAACACACCACCTGCTACT	-1.24
TTGTCAAGTTTGGTAAGCAGACCCCTACTG	2.36
GGATTCTGGGACCCACCCACCTATGTCCTT	2.75
GTGGGGGTCGGGGCACTGGTCCCCTGCACA	-0.202
TTCTTTGGGGCTTAGATAGCAGTGTGAGTG	1.06
GTCTAGGTGCCAGAATTGCTGCTCCCCCTC	3.94
GAAAGGAGGTCATGTACATGAAAGCAAGTT	1.24
TAAGCAGATCTTTAGAGACAGAAAATGCTT	-1.18
TAAAGTTTATAGGCTAGAATGGAAACCAAT	-1.17
GTTTCTGTTTTGATCTTAAGATGATATAGC	1.74
TTCCAGCTCAATCAAGGACTGGGCTGGAAC	-1.19
TAGGTAAGAGACAAAGGTTGCATTCTTTTG	2.02
CACTGTTTGCCATAGATCCCACCATTCCCA	1.63

Sequence	binding signal (log2 normalized intensity)
TTCAGCTTCTCTTGTTTGTGTAACTGTGGG	1.62
TGGTGTTTGATCTGATGTACCCAGCACTGT	1.59
TTGATATGTTAGTCTTGAGTCCCAAAGTCC	4.55
TGTTTGAGTTCCAAAGTCCATGTTCATAAC	5.66
GGGTGGGGTGCTGCCTTTCCTGTGACTTTT	2.09
ACCTGATGACAAAGGTGAGAGAGCATCCAG	-1.35
GAAAAGAATATCTCAGCAGCCTGGCTGCTC	-1.32
CCTGGCCATTTCTCAGGTTGTGTTTGCAGT	2.02
TTGCATCAGCAGAGGACAGAAGAAGGAAAA	-1.44
GTTCTGTTCCAGTTATGTTCTCTGTACGGA	2.02
ATCAGAGCTGGATGTGAGTTATGACTACTT	0.62
GCCCTTTTTTTCTCTCCCCTTTTAATACAA	1.73
CCCTCTTTAGGGTAGCCTGGGTTAAAGTCC	6.18
CAGCACATGAAGGTCTCCTTGACTTCAAAG	-0.936
CCTGGTGGCCATCAAGCAGATCATCCAGAG	-1.23
TTGGTGGGCTTTTGTCACATTCCAGACTTT	3.32
CCCCTGCCCCCAGGTAGAGAGCAATCATGC	2.8
AGATTAGATATATCTGTACTCAAACACTGC	0.957
TTTGAAGCATGGAGAAAATTCTGGACCTTC	2.85
TTGGTATTACATTACAACCAAAGGAATTTA	-0.386
